The supplement of paper PMC4967469

How the values were obtained:
Test in all cases: Viability of human cancer cell lines after 72 h of drug (GDSC screen)
PIK-93 = compound: CC(=O)Nc1nc(C)c(-c2ccc(Cl)c(S(=O)(=O)NCCO)c2)s1 [PIK-93]; conditions: top dose 20 µM
Description: (§1)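 Human cancer cell lines in 384-well plates, medium with 10% serum, drug for 72 h over a 256-fold dose range (nine 2-fold or five 4-fold steps up to the top dose). Adherent lines were fixed and stained with the nucleic acid dye Syto60, suspension lines read with resazurin; signal relative to control wells, capped at 0 and 100%. One two-parameter sigmoid per drug and line, fitted in a mixed model over all curves with the slope shared within a line.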

ABT-263 = compound: CC1(C)CCC(c2ccc(Cl)cc2)=C(CN2CCN(c3ccc(C(=O)NS(=O)(=O)c4ccc(N[C@H](CCN5CCOCC5)CSc5ccccc5)c(S(=O)(=O)C(F)(F)F)c4)cc3)CC2)C1 [ABT-263]; conditions: top dose 2 µM; top dose inferred
Description: as §1

piperlongumine = compound: COc1cc(/C=C/C(=O)N2CCC=CC2=O)cc(OC)c1OC [piperlongumine]; conditions: top dose 10 µM
Description: as §1

GW 441756 = compound: Cn1cc(/C=C2\C(=O)Nc3cccnc32)c2ccccc21 [GW 441756]; conditions: top dose 2 µM; top dose inferred
Description: as §1

Row | Cell Line | AUC (PIK-93) | IC50 (PIK-93) | AUC (ABT-263) | IC50 (ABT-263) | AUC (piperlongumine) | IC50 (piperlongumine) | AUC (GW 441756) | IC50 (GW 441756)
1 | HT-1376 (bladder, adherent) | 0.985 | > 20 µM | 0.979 | > 2 µM | 0.746 | 3.67 µM | 0.969 | > 2 µM
2 | NCI-H520 (lung squamous cell carcinoma, adherent) | 0.521 | 1.43 µM | 0.987 | > 2 µM | 0.963 | > 10 µM | 0.971 | > 2 µM
3 | MDA-MB-361 (breast, adherent) | 0.575 | 2 µM | 0.981 | > 2 µM | 0.744 | 3.11 µM | 0.976 | > 2 µM
4 | BICR78 (head and neck, adherent) | 0.859 | > 20 µM | 0.928 | > 2 µM | 0.752 | 3.79 µM | 0.784 | 0.991 µM
5 | UACC-62 (melanoma, adherent) | 0.962 | > 20 µM | 0.983 | > 2 µM | 0.737 | 2.95 µM | 0.987 | > 2 µM
6 | CaR-1 (large intestine, adherent) | 0.929 | > 20 µM | 0.963 | > 2 µM | 0.783 | 6.72 µM | 0.972 | > 2 µM
7 | JHOS-2 (ovary, adherent) | 0.784 | 10 µM | 0.912 | > 2 µM | 0.792 | 5.37 µM | 0.97 | > 2 µM
8 | T84 (large intestine, adherent) | 0.86 | 17.2 µM | 0.971 | > 2 µM | 0.837 | 6.84 µM | 0.98 | > 2 µM
9 | OV-7 (ovary, adherent) | 0.614 | 3.02 µM | 0.753 | 1 µM | 0.72 | 3.69 µM | 0.969 | > 2 µM
10 | MHH-ES-1 (Ewing sarcoma, adherent) | 0.316 | 0.385 µM | 0.952 | > 2 µM | 0.722 | 2.64 µM | 0.805 | 0.99 µM
11 | CAL-78 (chondrosarcoma, adherent) | 0.814 | 13 µM | 0.937 | > 2 µM | 0.802 | 5.76 µM | 0.842 | 1.71 µM
12 | VMRC-RCZ (kidney, adherent) | 0.858 | > 20 µM | 0.961 | > 2 µM | 0.795 | 5.52 µM | 0.983 | > 2 µM

By IC50 is meant the dose at which the fit gives 50% viability; a limit (>, <) means that the fit lies beyond the doses tested. The AUC spans the tested range (256-fold, ending at the top dose) of the same fit; values near 1 show little effect. For part of these data: Where the top dose is marked as inferred, it is not printed in the source and was worked back from the curve model.
